The campaign covered roughly 310,000 compounds. About 2,200 (0.71%) showed an effect of 50% or more. The effect is printed as a negative number. This is one part of the list.
Molecular target: human ether-à-go-go-related gene (hERG) potassium channel (human, UniProt Q12809)
Assay: primary screen, population patch clamp on CHO cells stably expressing hERG

human ether-à-go-go-related gene (hERG) potassium channel, sequence (Q12809 whole entry, looked up): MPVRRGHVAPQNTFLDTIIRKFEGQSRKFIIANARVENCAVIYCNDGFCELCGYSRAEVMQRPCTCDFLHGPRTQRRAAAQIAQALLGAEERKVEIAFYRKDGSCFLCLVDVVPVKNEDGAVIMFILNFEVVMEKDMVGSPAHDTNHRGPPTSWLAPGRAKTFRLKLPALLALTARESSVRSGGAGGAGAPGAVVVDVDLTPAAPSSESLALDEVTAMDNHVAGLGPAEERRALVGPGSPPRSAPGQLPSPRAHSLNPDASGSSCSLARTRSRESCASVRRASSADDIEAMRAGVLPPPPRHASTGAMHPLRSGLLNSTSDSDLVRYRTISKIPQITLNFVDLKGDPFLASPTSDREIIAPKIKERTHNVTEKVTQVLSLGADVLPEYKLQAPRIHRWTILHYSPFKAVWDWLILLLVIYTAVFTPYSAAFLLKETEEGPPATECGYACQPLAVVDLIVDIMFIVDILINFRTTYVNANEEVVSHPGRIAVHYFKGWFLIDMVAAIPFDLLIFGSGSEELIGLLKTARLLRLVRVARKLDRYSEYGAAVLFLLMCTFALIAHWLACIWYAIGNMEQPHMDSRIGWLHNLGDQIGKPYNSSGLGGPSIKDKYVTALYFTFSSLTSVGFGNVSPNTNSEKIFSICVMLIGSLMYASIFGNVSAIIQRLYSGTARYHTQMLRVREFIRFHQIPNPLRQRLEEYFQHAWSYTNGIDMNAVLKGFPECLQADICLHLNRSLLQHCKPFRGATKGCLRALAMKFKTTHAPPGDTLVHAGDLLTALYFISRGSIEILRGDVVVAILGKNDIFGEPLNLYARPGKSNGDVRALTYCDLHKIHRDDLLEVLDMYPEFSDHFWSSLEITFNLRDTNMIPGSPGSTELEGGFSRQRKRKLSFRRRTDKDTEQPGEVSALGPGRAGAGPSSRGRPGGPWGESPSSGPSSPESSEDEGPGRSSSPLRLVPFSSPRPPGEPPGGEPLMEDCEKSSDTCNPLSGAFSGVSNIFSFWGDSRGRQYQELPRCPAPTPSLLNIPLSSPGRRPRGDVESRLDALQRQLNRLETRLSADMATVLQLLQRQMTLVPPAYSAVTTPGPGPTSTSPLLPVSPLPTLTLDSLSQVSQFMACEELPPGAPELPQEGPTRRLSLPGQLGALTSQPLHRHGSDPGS

| SMILES | hERG current change (%, negative = inhibition) at 1uM |
| --- | --- |
| O=C(Nc1ccc(Br)c2ccccc12)c1ccc2ccccc2c1O | 16.9% |
| COc1ccc(N2CSC3=C(C#N)C(c4cccc(OC)c4OC)CC(=O)N3C2)cc1 (stereo not shown) | 14.8% |
| Cc1[nH]c2ccccc2c1C(c1ccncc1)N1CCC(C)CC1 (stereo not shown) | 17.1% |
| COc1ccccc1NC(=O)c1cc(C(=O)O)ccc1C(=O)O | 11.3% |
| O=C(CN(c1ccccc1)S(=O)(=O)c1ccccc1)NCCSc1nc2ccccc2s1 | 8.06% |
| CCOC(=O)Cn1c(C)cc(=O)c2ccccc21 | 12.3% |
| CC(Nc1n[nH]c(=S)[nH]c1=O)C(=O)OCc1ccccc1 (stereo not shown) | 6.04% |
| COc1ccc(NS(=O)(=O)c2ccc(F)c(F)c2F)cc1S(=O)(=O)N1CCOCC1 | 19.1% |
| CCOC(=O)Cc1cn2c(=O)cc(CSCC(=O)Nc3ccc(C)c(C)c3)nc2s1 | 9.54% |
| COc1ccc(C(=O)/C=C/c2ccc(OC)c(Cn3nnc4ccccc43)c2)cc1 | 8.34% |
| C#CCSc1nc(Cc2ccc(Cl)cc2)nc2ccccc12 | 26.7% |
| CCN(c1ccccc1)S(=O)(=O)c1ccc(C(=O)N(CCN(C)C)c2nc3c(F)cc(F)cc3s2)cc1.Cl | -17.3% |
| COc1cc(NC(=O)Cn2c([N+](=O)[O-])cnc2C)c(OC)cc1Cl | 13.2% |
| CCC(=O)Nc1ccc(C(=O)OCC(=O)c2ccc(C)c([N+](=O)[O-])c2)cc1 | 3.57% |
| Cc1noc(C)c1C(=O)N1CCN(c2ncccn2)CC1 | 11.8% |
| COc1ccccc1NC(=O)c1ccccc1Oc1ccccc1 | 13.4% |
| Cc1c(C(=O)NCc2ccco2)oc2c(F)cccc12 | 1.97% |
| COc1ccccc1CNCC(=O)Nc1ccc(C(F)(F)F)cc1.Cl | 6.96% |
| C#CCn1cc(/C=C2\NC(=O)NC2=O)c2ccccc21 | 8.24% |
| CCOC(=O)COc1ccc(S(=O)(=O)c2ccc(OCC(=O)OCC)cc2)cc1 | 14.1% |
| O=C(NCCN1CCOCC1)C1CCN(Cc2ccccc2O)CC1 | 15.6% |
| O=c1ccnc(SCc2ccccc2Cl)[nH]1 | 10.6% |

| SMILES | hERG current change (%, negative = inhibition) at 1uM |
| --- | --- |
| O=C(Cn1c(Cc2ccccc2)nc2ccccc21)NCc1ccc2c(c1)OCO2 | 12.1% |
| CCOC(=O)c1c(-c2ccc(F)cc2)csc1NC(=O)CCN1CCOCC1.O=C(O)C(=O)O | -25.7% |
| Cc1ncc([N+](=O)[O-])n1Cc1ccccc1 | 4.29% |
| CC(=O)Nc1ccc(S(=O)(=O)NCCC(=O)NCC2COc3ccccc3O2)cc1 (stereo not shown) | 10% |
| COc1ccc(Cc2nnc(NC(=O)c3cccc([N+](=O)[O-])c3)s2)cc1 | 18.2% |
| COC(=O)c1cc(=O)nc2sccn12 | 4.27% |
| COc1ccccc1CNc1ccc(N2CCCCC2)cc1 | -3.06% |
| CCCNC(=S)Nc1cccc(C(F)(F)F)c1 | 1.75% |
| O=C(O)CC1c2ccccc2CCN1S(=O)(=O)c1ccccc1 (stereo not shown) | 8.59% |
| Cc1cc(NC(=O)C(C)SCC(=O)OCc2ccc([N+](=O)[O-])cc2)no1 (stereo not shown) | 3.86% |
| Cc1cc2nc3n(c2cc1C)CC1CC(C(=O)NCc2cccc(C(F)(F)F)c2)N(C)C31 (stereo not shown) | -1.89% |
| O=C(COC(=O)/C=C/c1ccc(F)cc1)Nc1nnc(-c2ccccc2)o1 | 12.1% |
| Cc1ccc(CCNC(=O)c2cc(-c3ccncc3)nc3ccc(S(=O)(=O)N4CCOCC4)cc23)cc1 | 20.3% |
| CN(C)CCCO[C@@H]1[C@H]2OC(C)(C)O[C@H]2O[C@@H]1[C@H](O)CO.Cl | 11.5% |
| Cc1n[nH]c(=S)n1/N=C/c1ccccc1OCc1ccc(Cl)cc1Cl | 5.26% |
| Cc1ccc(S(=O)(=O)N(C)C)cc1NC(=O)c1ccc(-n2cncn2)c([N+](=O)[O-])c1 | -13.8% |
| CCc1ccccc1N1CN(Cc2cccnc2)CNC1=S | 14.1% |
| O=C(Cc1ccccc1)NCc1n[nH]c(=S)n1-c1ccc(Br)cc1 | 9.36% |
| CCSc1nc(O)c(C2OC(=O)c3c2ccc(OC)c3OC)c(=O)n1CC (stereo not shown) | 2.3% |
| O=C(O)CCN1C(=O)c2ccc(NC(=O)Cc3ccc(Cl)cc3)cc2C1=O | 3.7% |
| COc1cc(NC(=O)c2ccc(Cl)cc2)c(OC)cc1NC(=O)CN1CCCCC1.Cl | 10.4% |
